Results on 83 compounds are retold here after PubChem BioAssay AID1346428 (National Center for Advancing Translational Sciences (NCATS), 2018).

Out of some 48,000 compounds screened, about 1,200 (2.5%) were called active. Another 2% or so got no clear call; they are omitted.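 Rule for the calls: active = activation of at least 60% and not above a set upper limit (about 1 call in 100 departs from these limits); inconclusive = activation of 40% to 60%, or above that upper limit; inactive = activation under 40%.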 This is one part of the list.

Chain of UniProt O75388 (O75388 whole entry, looked up): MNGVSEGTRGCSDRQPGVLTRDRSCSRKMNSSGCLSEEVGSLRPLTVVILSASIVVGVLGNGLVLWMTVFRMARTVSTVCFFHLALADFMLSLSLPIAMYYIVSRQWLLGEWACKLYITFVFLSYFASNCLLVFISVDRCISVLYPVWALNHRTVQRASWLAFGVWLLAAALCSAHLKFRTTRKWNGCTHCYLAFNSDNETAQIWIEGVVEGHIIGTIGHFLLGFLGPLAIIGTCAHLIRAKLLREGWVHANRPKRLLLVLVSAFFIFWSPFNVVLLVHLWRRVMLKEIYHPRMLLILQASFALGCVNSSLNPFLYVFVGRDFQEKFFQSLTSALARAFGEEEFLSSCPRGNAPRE

This assay concerns the target Probable G-protein coupled receptor 32 (Homo sapiens) (UniProt O75388). The assay can be described thus: qHTS for Agonists of Human Resolvin D1 Receptor DRV1. Conditions: CHO-K1 GPR32 beta-arrestin PathHunter luminescence, 90 min; at 76.9 µM; stronger effect = higher value; zero percent set by DMSO-only wells. The text has this:
Endogenous resolution of inflammation is known to be transduced through various GPCRs and their natural mediators of lipid nature. Resolvin D1 (RvD1) is one of the active players in resolution of acute inflammation through regulation of anti-inflammatory pathways; it is known to enhance phagocytosis of human macrophages, limits neutrophils infiltration, etc. […] The search for GPR32-activating small molecules with anti-inflammatory effects similar to its natural omega-3 derivative ligand in order to use them as research tools for further studies of inflammation and its resolution was the goal of this screening project. For primary screening assay, we used CHO-K1 GPR32 beta-arrestin cell line (DiscoveRx, #93-0321C2A) and the PathHunter(R) beta-Arrestin Assay (DiscoveRx) which measures recruitment of beta-arrestin to the GPR32 and generates chemiluminescent signal. These engineered cells stably transfected with GPR32 co-express GPR32-fused small 42-amino acid fragment of beta-Gal called ProLinktrade mark, and […] -tagged beta-Arrestin fusion protein. When GPR32 is activated by a ligand, it stimulates binding of beta -Arrestin to ProLink-tagged GPR32, and two parts of beta-Gal complement forming a functional enzyme. Upon substrate (PathHunter(R) Detection reagent) addition, beta-Gal hydrolyzes it and generates a chemiluminescent signal.
The cells were thawed and plated in thawing media containing F-12 HAM (Invitrogen, #11765-054), 10% FBS (Invitrogen, #10082), 1x Glutamine, and 1x Pen/Strep onto the 175-mm flask for 24 hours. Then, thawing media was replaced with Growth media which contains 800microg/mL Geneticin (Invitrogen, #10131) and 300microg/mL Hygromycin B (Invitrogen, #10687) in addition to described above. For the assay, the cells were harvested at ~80% confluent stage with Cell Dissociation buffer (Gibco, #13151), and seeded at 2,500 cells/ 3microL/well in assay media (PathHunter(R) Cell Plating Reagent, DiscoverX, #93-0563R1B) using MultiDrop Combi dispenser (Thermo Scientific, Logan, UT) onto white solid bottom tissue culture-treated 1536-well plates (Greiner # 789173-F) and allowed to attach overnight at 37 degrees C, 95% humidity, 5% CO2, . Next, 23nL/well of compound solutions in DMSO were added with a Pin Tool (Kalypsis, San Diego, CA) to the assay plates. As the basal control (EC0), 23 nL/well of DMSO was used on each plate. The cells were incubated in the presence of compounds or DMSO for 90 minutes at 37 degrees C, 5% CO2. Subsequently, 1.5microL/well of PathHunter(R) Detection Reagent prepared per the manufacturer's instructions was added to the assay plates with BioRAPTR FRDtrade mark dispenser (Beckman Coulter, San Francisco, CA) and incubated for 1 hour at ambient temperature prior to the measurement of the luminescent signal on ViewLux(R) uHTS Microplate Imager (Perkin Elmer, Waltham, MA).
Take `Cc1nnc(SCc2ccccc2)c2cc3sccc3n12`: the activation is inactive: -24.3%.
Next, `O=S(=O)(Nc1cccc(-c2ccc(N3CCCC3)nn2)c1)c1ccccc1C(F)(F)F`: inactive: 13.7%; `COCCCNC(=O)CSC1=Nc2ccccc2C2=NC(CCC(=O)NCc3ccccc3OC)C(=O)N12` (stereo not drawn): inactive: -26.6%.
Next, `COc1ccc(N2CCN(c3oc(/C=C/c4ccc(F)cc4)nc3C#N)CC2)cc1`: inactive: -19.4%; `CCc1ccc(CN(Cc2ccco2)C(=O)c2ccc(OC)cc2)cc1`: inactive: -8.03%; `COC(=O)c1cccnc1`: inactive: 1.15%.
Next, `CCc1ccc(CNC(=O)CCC(=O)N2Cc3cccc(OC)c3Oc3ncccc32)cc1`: inactive: -6.92%; `Cc1cc(C)cc(OC(C)C(=O)Nc2nonc2-c2ccc(Br)cc2)c1` (stereo not drawn): inactive: -7.9%.
Regarding `O=C(Nc1cccc(C(=O)OCc2cc(=O)n3nc(C4CC4)sc3n2)c1)c1ccccc1`, the activation was inactive: -2.56%.
With `Cc1ccc(Cl)cc1N(C)C(=O)Cn1nc(Cc2cccnc2)c2ccccc2c1=O` the figure was inactive: -65.4%; with `Nc1c(-c2nc(-c3cccs3)no2)nnn1-c1ccccc1Cl`, inactive: -4.02%; with `CCOc1cccc(CNC(=O)c2ccc(N3CCCC3)c(NC(=O)NCc3ccc(F)cc3)c2)c1`, inactive: -22%.
Consider `O=C(NCc1ccco1)C1CCN(C(=O)N2CCOc3ccccc32)CC1`, for which the activation was inactive: -3.83%.
Take `O=[N+]([O-])c1ccc(-c2nc(-c3ccc(F)cc3)c(-c3ccncc3)[nH]2)cc1`: the activation is inactive: -17.5%.
With `Cc1ccccc1NC(=O)CSc1nnc(C)c(=O)[nH]1` the figure was inactive: -3.99%.
With `Cc1ccccc1CS(=O)(=O)CC1Nc2ccc(C(=O)NCc3ccc(Cl)cc3)cc2NC1=O` (stereo not drawn), the activation was inactive: -17.6%.
With `COCCn1c(CNC(=O)c2ccc(C)cc2)nc2cccnc21` the figure was inactive: -8.6%.
On to `COc1ccccc1-c1nc2c3c(-c4ccccc4)c(-c4ccccc4)oc3ncn2n1`, for which the activation was inactive: 4.81%.
With `CCN(CC)CCOC(=O)c1ccc(NC(=O)Cn2ncc3c([nH]c4ccc(C)cc43)c2=O)cc1` the figure was inactive: 6.5%; with `Cc1ccc(C)c(Cn2c3ccccc3c3cnn(CC(=O)NCCCc4ccccc4)c(=O)c32)c1`, inactive: -11.6%.
With `CCOc1ccc(-c2nonc2NC(=O)c2oc3c(C)c(C)ccc3c2C)cc1OCC` the figure was inactive: -5.72%.
With `O=c1cc(-c2ccccc2F)[nH]c2cc3c(cc12)OCO3`, the activation was inactive: -2.7%.
Next, `COc1ccc2cc3cc(C(=O)NCc4ccc(C)cc4)oc3nc2c1`: inactive: 27.6%; `Cc1cc(C)cc(NC(=O)CSc2nc3c(oc4ccccc43)c(=O)n2-c2ccccc2F)c1`: inactive: 10.2%.
With `CCc1cccc(OCC(=O)Nc2ccc(S(=O)(=O)Nc3cc(C)nc(C)n3)cc2)c1` the figure was inactive: 1.57%.
Next, `COc1ccc(F)cc1S(=O)(=O)NCCc1c(C)[nH]c2c(Cl)cccc12`: inactive: -22.3%; `COc1ccc(OC)c(CCNC(=O)c2ccc3c(c2)N(Cc2ccc(C)cc2)CCS3)c1`: inactive: -18.2%.
In the case of `COc1ccc(Nc2cc(C(=O)NCCc3ccc(C)cc3)c3ccccc3n2)c(OC)c1`, the activation was inactive: -17.1%.
With `Cc1ccc(-c2nnc(Nc3ccc(O)cc3)c3ccccc23)cc1S(=O)(=O)N1CCN(C)CC1` the figure was inactive: 30.6%; with `S=C(S)OC1CC2CC1C1CCCC21` (stereo not drawn), inactive: -22.4%.
As for `CCCCOc1ccc(C(=O)Nc2nnc3n2CCS3)cc1`, the activation is inactive: -7.94%.
Next, `CCOCCCNC(=O)C1CCN(c2nn3cc(-c4ccc(F)cc4)nc3s2)CC1`: inactive: -1.68%.
With `CCOC(=O)N1CCC(NC(=O)c2c(C)nn(-c3ccc(C)cc3)c2-n2cccc2)CC1` the figure was inactive: 0.743%; with `CCCn1c2ccccc2c2cnn(CC(=O)NCCc3ccc(OCC)cc3)c(=O)c21`, inactive: -8.29%; with `CCC(C(=O)OCCOCCN(CC)CC)c1ccccc1` (stereo not drawn), inactive: 2.16%.
With `CCOc1ccc(-c2nn(CC(=O)NC3CCCCC3)c3c2cnc2ccc(C)cc23)cc1` the figure was inactive: -1.87%; with `CCOc1ccc(NC(=O)CCNS(=O)(=O)c2ccc3c(c2)oc(=O)n3C)cc1`, inactive: 8.92%.
For the compound `Cc1ccc(C(=O)NCCc2ccc(Cl)cc2)cc1-n1c(C)nc2cccnc21`, the activation was inactive: -4.84%.
Next, `COc1cc(-c2noc(-c3ccc(NCc4ccccc4)c([N+](=O)[O-])c3)n2)cc(OC)c1OC`: inactive: 9.96%; `Cc1ccc(C)c(Cn2c3ccccc3c3cnn(CC(=O)NCCC4=CCCCC4)c(=O)c32)c1`: inactive: -0.988%; `COc1ccc(Cl)cc1NC(=O)c1sc(-n2nc(C)c(Cc3ccccc3)c2C)nc1C`: inactive: 3.29%.
Next, `COc1ccc(NC(=O)Cn2nnc3sc4c(c3c2=O)CCC(C)C4)c(OC)c1` (stereo not drawn): inactive: -5.72%.
For the compound `COc1ccccc1CNC(=O)c1ccc2c(c1)N(Cc1cccc(C)c1)C(=O)c1ccccc1S2(=O)=O`, the activation is inactive: -2.55%.
With `CCn1c(=O)c2cc(C(=O)N(CCN(C)C)Cc3ccccc3)sc2c2ccccc21` the figure was inactive: 10.9%; with `COc1ccc(C2CC(=O)N(Cc3ccccc3C)c3c2c(C)nn3-c2nc(C)cc(C)n2)c(OC)c1` (stereo not drawn), inactive: -9.26%; with `CC(C)(C)c1ccc(-c2nc(SCCOc3ccc(Cl)cc3)n3[nH]c(=O)cc3n2)cc1`, inactive: 33.6%.
Consider `Cc1ccccc1-n1c(SCC(=O)Nc2ccc(Cl)cc2Cl)nc(O)cc1=O`, for which the activation was inactive: -5.25%.
Next, `COc1ccc(-c2nc3c4ccccc4n(CC(=O)Nc4ccc(C(C)C)cc4)c(=O)n3n2)cc1`: inactive: -8.25%; `COc1ccc(NC(=O)CSC2=Nc3ccccc3C3=NC(CC(=O)NCc4ccccc4OC)C(=O)N23)cc1Cl` (stereo not drawn): inactive: -21.3%; `Cc1ccc(S(=O)(=O)N2CCc3cc(C(=O)N(C)Cc4ccccc4)ccc32)cc1`: inactive: -14.5%.
With `CC(=O)N1CCc2c(sc3c2c(=O)n(-c2ccc(F)cc2)c(=O)n3Cc2cc(C)ccc2C)C1` the figure was inactive: -6.08%; with `CCc1sc(Nc2cccc(C)c2)nc1-c1cc2cccc(OC)c2oc1=O`, inactive: -33.1%; with `OCCOCCN1CCN(C2=Nc3ccccc3Sc3ccccc32)CC1`, inactive: -6.83%.
Next, `Cc1cccc(N(C)S(=O)(=O)c2ccc(-c3cc(C)no3)s2)c1`: inactive: -22.4%.
With `COc1ccc(S(=O)(=O)c2c(O)c(C)cc(NS(=O)(=O)c3ccc(Cl)cc3)c2C(C)C)cc1`, the activation is inactive: 10.9%.
With `COc1ccc(-c2noc(-c3ccc(N4CCN(C)CC4)c([N+](=O)[O-])c3)n2)cc1`, the activation was inactive: 5.98%.
Take `COc1cccc(-n2c(=O)c3c(C)c(C(=O)N(C)C)sc3n(Cc3cccc(C)c3)c2=O)c1`: the activation is inactive: -28%.
For `COc1cc(C(=O)N2CCN(CCc3ccncc3)CC2)cc(OC)c1OC`, the activation is inactive: -9.66%.
Next, `COc1ccc(C(CNC(=O)COc2cc(C)cc(C)c2)N2CCCCC2)cc1` (stereo not drawn): inactive: -18.5%; `COc1ccccc1-n1nc(-c2ccccc2)c2cnc3c(F)cc(F)cc3c21`: inactive: 17.1%; `COc1ccc(-c2nc(C)c(CCNC(=O)C(=O)Nc3ccccc3F)s2)cc1`: inactive: 1.35%.
Next, `Cc1ccc(NC(=O)Cn2c(=O)n(CC3CCC(C(=O)NC(C)C)CC3)c(=O)c3sccc32)cc1` (stereo not drawn): inactive: -11.2%.
With `COc1ccc(CCN2CCC(CNC(=O)c3cnn(-c4ccc(C)cc4)c3C3CCN(C(=O)OC(C)(C)C)CC3)CC2)cc1` the figure was inactive: -17.3%.
Consider `CCc1cc(S(=O)(=O)O)c2cc(C(C)C)cccc1-2`, for which the activation was inactive: -61.7%.
With `Cc1ccc(CN2CCC(CNC(=O)c3cnn(-c4ccccc4)c3C3CCN(C(=O)OC(C)(C)C)CC3)CC2)cc1` the figure was inactive: -6.1%; with `COCCn1c(=O)[nH]c2cc(C(=O)N3CCN(c4ccc(Cl)cc4)CC3)ccc2c1=O`, inactive: 17.5%.
`Cc1ccc2c(c1)C(=O)C(=O)N2Cc1ccc(OCCC(C)C)cc1`: the activation is inactive: -35.8%.
Next, `COc1ccc(NC(=O)c2oc3ccc(S(=O)(=O)N4CCCCC4)cc3c2C)cc1Cl`: inactive: 3.28%; `COc1ccc(NC(=O)c2cc(C(C)=O)n3ccccc23)cc1`: inactive: -10.6%.
Take `Cc1ccc2nc(NC(=O)c3nc(SCc4ccccc4F)ncc3Cl)sc2c1`: the activation is inactive: -6.04%.
Consider `CSc1ncc(Cl)c(C(=O)Nc2cc(C(F)(F)F)ccc2Cl)n1`, for which the activation is inactive: -8%.
With `COc1cc2c(=O)n(Cc3ccco3)c(=O)n(CC(=O)Nc3ccc(F)cc3)c2cc1OC` the figure was inactive: -9.91%; with `CCOc1cc2[nH]c(=O)n(Cc3ccc(C(=O)N4CCN(c5ccccc5)CC4)cc3)c(=O)c2cc1OCC`, inactive: -12.7%.
With `O=C(CSc1nc(=O)n(Cc2cccnc2)c2c1CCC2)Nc1cccc(Cl)c1`, the activation was inactive: -1.38%.
With `O=C(O)c1ccc(NCc2nc3ccccc3n2CCOc2ccccc2Cl)cc1`, the activation was inactive: -8.01%.
Consider `Cc1nc(-c2ccc(Cl)cc2)sc1CCNC(=O)C(=O)Nc1ccc2c(c1)OCCO2`, for which the activation is inactive: 15%.
With `CCOC(=O)N1CCC(NC(=O)c2cnn(-c3ccc(F)cc3)c2-n2cccc2)CC1` the figure was inactive: -5.39%; with `COc1ccc(N(C)C(=O)c2nn(-c3ccc(C)cc3)c(=O)n(C)c2=O)c(OC)c1`, inactive: -17.7%.
For the compound `Cc1cc(C)cc(NC(=O)N2CCC(C(N)=O)(N3CCCCC3)CC2)c1`, the activation is inactive: 20.8%.
Next, `Cc1ccc(-c2nn(-c3ccc(F)cc3F)c3c2cnc2ccc(F)cc23)cc1`: inactive: 2.71%; `COc1ccc(CNC(=O)CC(C)n2nc(C)cc2C)cc1` (stereo not drawn): inactive: 2.4%.
Next, `CCN(CC)c1cc(C)c2cc(NC(=O)/C=C/c3ccccc3Cl)ccc2n1`: inactive: -26.2%; `COc1ccc(N2CC(NC(=O)C(=O)c3c[nH]c4ccccc34)CC2=O)cc1` (stereo not drawn): inactive: -3.25%.
